Among the data in PubChem BioAssay AID360 (National Center for Advancing Translational Sciences (NCATS), 2006) are Potency values, retold here.

The structures appear in SMILES notation. Hit rate of the full screen: of about 48,000 compounds, about 550 (1.1%) were called active. Not shown: some 4% with an inconclusive outcome. No stated cut-off is given here; in the data, active means potency below about 15 µM; inconclusive means mostly about 16 µM to 33 µM; inactive means weaker than that. The list shows a part of the results.
Potency means the concentration at half of the fitted maximal effect.

UniProt P04062, sequence (P04062 whole entry, looked up): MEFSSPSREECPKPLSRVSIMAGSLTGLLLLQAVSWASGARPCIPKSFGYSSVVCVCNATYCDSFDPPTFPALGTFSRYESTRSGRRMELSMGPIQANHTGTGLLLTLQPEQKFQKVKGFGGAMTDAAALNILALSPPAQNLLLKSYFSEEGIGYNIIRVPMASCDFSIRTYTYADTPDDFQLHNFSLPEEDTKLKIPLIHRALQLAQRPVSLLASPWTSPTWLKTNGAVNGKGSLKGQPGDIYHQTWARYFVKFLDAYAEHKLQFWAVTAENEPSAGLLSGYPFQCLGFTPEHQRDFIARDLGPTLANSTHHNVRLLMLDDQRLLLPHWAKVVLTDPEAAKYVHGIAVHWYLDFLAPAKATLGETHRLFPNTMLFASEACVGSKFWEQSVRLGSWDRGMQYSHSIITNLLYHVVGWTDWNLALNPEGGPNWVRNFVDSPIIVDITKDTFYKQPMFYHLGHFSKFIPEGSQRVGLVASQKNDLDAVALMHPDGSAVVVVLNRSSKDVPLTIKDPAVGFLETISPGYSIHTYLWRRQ

This experiment deals with Lysosomal acid glucosylceramidase (Homo sapiens) (UniProt P04062). The experiment is described as follows: Glucocerebrosidase.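 Further: the screen sought inhibitors.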 The note with it: purified enzyme, resorufin glucoside fluorescence (screen aimed at inhibitors), 20 min. In outline:
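Compounds titrated against 0.2 nM normal enzyme, 30 uM resorufin beta-D-glucopyranoside substrate, citrate/phosphate buffer with taurocholate and tween-20, pH 5.9. Reaction ran 20 min at room temperature; fluorescence (Ex 548/Em 600) gave AC50.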
For the molecule `COC(=O)N1CCN(c2ccc(C(C)=O)cc2)CC1`, the Potency is inactive: > 76.9 µM.
As to `Cc1ccc(C)c2[nH]c(=O)c(CN(Cc3ccco3)C(=O)Nc3ccccc3)cc12`, the Potency was inactive: > 76.9 µM.
In the case of `COc1ccc(NC(=O)C2CCCCN2S(=O)(=O)c2ccc(F)cc2)c(OC)c1` (configuration not stated) it was inactive: > 76.9 µM; in that of `COc1cccc(-c2nnn(CC(=O)NC3CCCC3)n2)c1OC`, inactive: > 76.9 µM.
Next, `COc1ccc(OC)c(S(=O)(=O)N2CCC(C(=O)NCC3CCCO3)CC2)c1` (configuration not stated): inactive: > 76.9 µM; `COc1ccc(-c2nnc(SCC(=O)N3CCc4ccccc4C3)o2)cc1`: inactive: > 76.9 µM.
In the case of `CCOc1ccc2nc(NS(=O)(=O)c3ccc4c(c3)n(C)c(=O)n4C)sc2c1` it was inactive: > 76.9 µM; in that of `O=C(CCc1ccc(S(=O)(=O)N2CCOCC2)cc1)Oc1ccccc1`, inactive: > 76.9 µM.
In the case of `O=C(Oc1cccnc1)c1ccc(Cl)c(Cl)c1`, the Potency is inactive: > 76.9 µM.
For `O=C(NCc1cccnc1)c1noc2c1CCCC2`, the Potency is inactive: > 76.9 µM.
Regarding `O=C(CSc1nnc(-c2ccc(F)cc2)o1)Nc1ccc(S(=O)(=O)N2CCCC2)cc1`, the Potency is inactive: > 76.9 µM.
In the case of `O=C(NCC(=O)N(c1ccc2c(c1)OCCO2)C(C(=O)NC1CCCC1)c1ccco1)c1ccco1` (configuration not stated) it was inactive: > 76.9 µM; in that of `COc1ccc(NC(=O)CCc2nc(-c3ccccc3F)no2)cc1`, inactive: > 76.9 µM.
In the case of `CCCc1c(C)c2ccccc2[nH]c1=O`, the Potency was inactive: > 76.9 µM.
Next, `O=C(c1ccccc1-c1nc(-c2ccccc2)no1)N1CCCC1`: inactive: > 76.9 µM; `COC(=O)Cc1c(C)nc2nc(NCc3ccc(Cl)cc3)[nH]n2c1=O`: inactive: > 76.9 µM; `C=CCc1ccccc1OCC(CN1CCCCC1)OC(C)=O` (configuration not stated): inactive: > 76.9 µM.
In the case of `CCNc1cc2n(c(=O)n1)CCc1cc(OC)c(OC)cc1-2`, the Potency is inactive: > 76.9 µM.
Consider `COc1ccc(S(=O)(=O)N(Cc2ccccc2)Cc2nc(-c3ccccc3)no2)cc1`, for which the Potency was inactive: > 76.9 µM.
In the case of `CCc1nnc(NC(=O)CSc2nnc(CNc3ccc(F)cc3)n2C2CCCCC2)s1` it was inactive: > 76.9 µM; in that of `COc1ccc(-c2ccc(-c3nnn(CC(=O)N4CCOCC4)n3)cc2)cc1`, inactive: > 76.9 µM; in that of `CCn1c(C)cc(=S)c2ccccc21`, inactive: > 76.9 µM.
Next, `Cc1cc(C)n(C(=O)CSc2nnc(SCC(=O)n3nc(C)cc3C)s2)n1`: inactive: > 76.9 µM; `O=C(CSc1nnc(-c2cccs2)n1Cc1ccco1)Nc1ccc2c(c1)OCO2`: inactive: > 76.9 µM.
Next, `O=C(Oc1ccccc1)c1cccc(COC(=O)c2cnccn2)c1`: inactive: > 76.9 µM; `O=C(NC(Cc1ccccc1)C(=O)NCc1ccccn1)c1ccco1` (configuration not stated): inactive: > 76.9 µM.
Regarding `CCOC(=O)CCC(=O)OCC(=O)NC(C)C1CC2CCC1C2` (configuration not stated), the Potency is inactive: > 76.9 µM.
Next, `CC(=O)c1sc(-c2c(C)nc3sccn23)nc1C1CCCC1`: inactive: > 76.9 µM.
Turning to `CC(C)N(C(=O)Cn1c(SCC(=O)N2CCN(c3ccccc3)CC2)nc2ccccc21)C(C)C`, the Potency is inactive: > 76.9 µM.
In the case of `CCOC(=O)c1ccccc1NC(=O)CN1C(=O)CCS(=O)(=O)c2ccccc21` it was inactive: > 76.9 µM.
In the case of `O=C1NCCN1C(=O)c1cccc(Cl)c1` it was inactive: > 76.9 µM; in that of `CCOC(=O)c1cccc(NC(=O)Cn2c(CC(=O)N3CCCC3)nc3ccccc32)c1`, inactive: > 76.9 µM.
On to `COCCCNC(=O)c1c(N)n(-c2cccc(S(N)(=O)=O)c2)c2nc3ccccc3nc12`, for which the Potency was inactive: > 76.9 µM.
Next, `O=C(Cn1cnc2c(cnn2-c2ccccc2Cl)c1=O)N1CCc2ccccc21`: inactive: > 76.9 µM; `CN(Cc1cccc(F)c1)C(=O)c1ccc(S(=O)(=O)C(F)F)cc1`: inactive: > 76.9 µM; `Cn1nnnc1SCC(=O)c1c(N)n(C)c(=O)n(C)c1=O`: inactive: > 76.9 µM.
In the case of `O=C(CCSc1ccccc1)NCCN1CCOCC1` it was inactive: > 76.9 µM.
With `CC(=O)N1CCN(Cc2cc(=O)n3cc(Cl)c(C)c(Cl)c3n2)CC1`, the Potency was inactive: > 76.9 µM.
For the molecule `O=C(CC1(C(F)(F)F)OCCO1)Nc1ccc2c(c1)OCO2`, the Potency was inactive: > 76.9 µM.
In the case of `CCc1ccccc1NC(=O)c1nnn(CC(=O)Nc2cccc(C)c2)c1N` it was inactive: > 76.9 µM; in that of `C=CCc1c(C)nc(SC)nc1Nc1ccc(C(=O)O)cc1`, inactive: > 76.9 µM; in that of `COc1ccc(N/C=C2/CCCCC2=O)cc1`, inactive: > 76.9 µM.
Next, `CCN(CC)C(=O)Cn1nc(-c2ccccc2O)nc1SCC(=O)Nc1ccc(OC)cc1`: inactive: > 76.9 µM; `COc1ccc(C2=NCC(CSc3nnc(-c4ccc5c(c4)OCO5)o3)S2)cc1` (configuration not stated): inactive: > 76.9 µM.
Next, `CCOc1ncccc1C(=O)OCC(=O)NCCc1ccc(OC)cc1`: inactive: > 76.9 µM.
For the molecule `Nc1cc(N)nc(SCCN2CCCCC2)n1`, the Potency is inactive: > 76.9 µM.
Next, `O=C(Nc1cccc(O)c1)c1ccc(Br)cc1`: inactive: > 76.9 µM; `Cn1c(=O)n(CC(=O)Nc2ccc(F)cc2)c2ccccc21`: inactive: > 76.9 µM.
Next, `Cc1cc(O)c2c(-c3ccccc3)cc(=O)oc2c1`: inactive: > 76.9 µM.
In the case of `COC(=O)c1cccc(C(=O)Oc2cccc(Br)c2)n1` it was inactive: > 76.9 µM; in that of `Cc1nc2cc(Cl)c(Cl)cc2nc1C`, inactive: > 76.9 µM.
Consider `CC(Sc1nc(N2CCOCC2)c2c(c1C#N)CC(C)(C)OC2)C(=O)Nc1ccccc1` (configuration not stated), for which the Potency was inactive: > 76.9 µM.
On to `CC(=O)Nc1ccc(S(=O)(=O)NCc2csc(-c3cccnc3)n2)cc1`, for which the Potency is inactive: > 76.9 µM.
Next, `O=C(CN(Cc1ccc(F)cc1)C(=O)CCC(=O)Nc1ccccn1)NCc1ccco1`: inactive: > 76.9 µM; `CCC1=Nc2ccccc2-c2nnc(SC)nc2O1`: inactive: > 76.9 µM.
Consider `Cc1cc(C)c2[nH]c(=O)c(CN(Cc3ccco3)C(=O)C3CCCO3)cc2c1` (configuration not stated), for which the Potency is inactive: > 76.9 µM.
For `COC(=O)c1[nH]c2ccc(C)cc2c1NC(=O)CN1CCN(c2ccccc2)CC1`, the Potency is inactive: > 76.9 µM.
